From PubChem BioAssay AID588855 (National Center for Advancing Translational Sciences (NCATS), 2011)
The campaign covered roughly 410,000 compounds. About 5,000 (1.2%) were called active. Inconclusive means that the source gave no clear call. Such entries were picked first, then a sample of the others. The call rests on the fitted dose curve; in most records, active means well fitted inhibition curve with a large enough effect; inconclusive means small, poorly fitted or top-dose-only effect; inactive means no such curve, though single readings can be large or run the other way. A potency beside an inconclusive call is a rough fit, not a confirmed value.

Assay: qHTS for Inhibitors of TGF-b; further: nearly all actives have a fitted effect of over 65% in size
Conditions: HepG2 CAGA-GFP TGF-b/SMAD3 reporter, GFP fluorescence, 18 h, TGF-beta stimulated, 500 pg/mL final; series mostly up to 46.1 µM; activity, negative = inhibition: at the top concentration
Procedure, shortened: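 Cell-based qHTS in HEPG2 carrying a CAGA-GFP Smad reporter; compounds added before 500 pg/mL final TGF-beta, 18 h incubation at 37 degrees C, GFP fluorescence quantified per cell by imaging cytometry.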
On the % scale 0 is the no-effect control and ±100 the full control effect; potency means the concentration at half of the fitted maximal effect; tags describe the fitted curve by direction and shape.

SMILES | Potency | activity, negative = inhibition
CCn1c2ccccc2c2cc(CN3CCN(Cc4ccc(OC)c(OC)c4)CC3)ccc21 | inconclusive: 17.8 µM [inhibitor, partial curve, poor fit] | 
COc1ccc(NS(=O)(=O)c2ccc3oc(SCc4ccc(F)cc4)nc3c2)cc1 | inconclusive: 35.5 µM [inhibitor, partial curve, poor fit] | 
CCOc1ccc(N(C)S(=O)(=O)c2ccc(-c3cc(C)no3)s2)cc1 | inconclusive: 15.8 µM [inhibitor, single point] | 
CCCNC(=O)c1cc(C2CCCN(C(=O)c3cc(F)ccc3C)C2)on1 (configuration not stated) | inconclusive: 8.91 µM [inhibitor, partial curve, poor fit] | 
Cc1cc(C(=O)N2CCc3c([nH]c4ccccc34)C2c2cccc(Cl)c2)nn1C (configuration not stated) | inconclusive: 35.5 µM [inhibitor, single point] | 
CCOC(=O)c1c(-c2cccs2)csc1NC(=O)C(C)(C)C |  | inactive: 11.6%
COc1cc(/C=C2/SC(=S)N(CCC(=O)Nc3ccc(C(=O)O)cc3)C2=O)cc(OC)c1OC |  | inactive: 2.04%
COCCNC(=S)N/N=C(\C)c1ccc(Cl)c(Cl)c1Cl | inconclusive: 11.2 µM [inhibitor, partial curve] | 
Cc1ccc(N(CC(O)Cn2nc(C)cc2C)S(=O)(=O)c2ccc3ccccc3c2)cc1 (configuration not stated) | inconclusive: 5.01 µM [inhibitor, partial curve] | 
Cc1c(C(=O)N2CCOCC2)sc2ncnc(N3CCc4ccccc4C3)c12 | inconclusive: 35.5 µM [inhibitor, single point] | 
COc1ccc(S(=O)(=O)NCCOc2ccccc2)cc1OC | inconclusive: 3.55 µM [inhibitor, single point] | 
O=C(Nc1ccc(Br)cc1)c1cccc(NC(=O)C2C3CC4OC(=O)C2C4C3)c1 (configuration not stated) | inconclusive: 0.631 µM [inhibitor, full curve, poor fit] | 
Cc1nn(-c2ccccc2)c(N)c1Sc1ccc([N+](=O)[O-])cc1 | inconclusive: 35.5 µM [inhibitor, single point] | 
COCc1ccc2oc(C(=O)O)cc2c1 |  | inactive: -0.629%
C/C(=N\NC(=S)NCCc1ccccc1)c1ccc(C)cc1 |  | inactive: -13%
N#CCCN(C(=O)COC(=O)CCN=C1NS(=O)(=O)c2ccccc21)c1ccc(F)cc1 | inconclusive: 1.58 µM [inhibitor, partial curve] | 
COc1ccc(S(=O)(=O)N2CCN(C(=O)c3ccco3)CC2)c(C)c1C | inconclusive: 15.8 µM [inhibitor, single point] | 
O=C(NCc1ccco1)c1ccc2c(=O)n(Cc3ccco3)c(SCC(=O)N3CCCC3)nc2c1 |  | inactive: -12.9%
COc1ccc(C)cc1NC(=O)c1ccc2nc(Cc3ccccc3)oc2c1 | inconclusive: 31.6 µM [inhibitor, single point] | 
CCn1c2c(c(=O)n3ncc(C(=O)Nc4ccc(C(=O)OC)cc4)c13)CN(Cc1ccc(OC)cc1)CC2 | inconclusive: 11.2 µM [inhibitor, partial curve, poor fit] | 
Cc1ccc(CNC(=O)c2c(-c3ccc(Br)cc3)noc2C)o1 | inconclusive: 35.5 µM [inhibitor, single point] | 
Cn1c(=O)oc2cc(S(=O)(=O)Nc3ccc(F)cc3)ccc21 |  | inactive: 8.04%
CCCn1c2ccc(F)cc2c2nnc(NN)nc21 | inconclusive: 2 µM [inhibitor, full curve] | 

SMILES | Potency | activity, negative = inhibition
O=[N+]([O-])c1cccc(-c2nc(-c3ccccn3)no2)c1 |  | inactive: -16.2%
CC(C)N(Cc1nc(-c2ccc(Cl)cc2)no1)C(=O)CN(C)S(=O)(=O)c1ccc(Cl)cc1 | inconclusive: 35.5 µM [inhibitor, single point] | 
CCn1ncc([N+](=O)[O-])c1C(=O)Nc1cc(C)on1 | inconclusive: 6.31 µM [inhibitor, single point] | 
CCCCNc1nc2ccccc2nc1NS(=O)(=O)c1ccc(F)cc1 | inconclusive: 15.8 µM [inhibitor, single point] | 
O=C(CCc1nc2ccccc2[nH]1)Nc1ccccc1 | inconclusive: 12.6 µM [inhibitor, partial curve, poor fit] | 
CC(=O)c1ccc2oc3ccccc3c(=O)c2c1 | inconclusive: 0.562 µM [inhibitor, partial curve, poor fit] | 
CCCCCCCCCCCCCCCC[n+]1cccc2ccccc21 | active: 6.31 µM | 
COc1cccc(-n2cc(CNC(=O)C3CCC(=O)N(C4CC4)C3)cn2)c1 (configuration not stated) |  | inactive: -10.5%
COc1cc(OC)c(OC)cc1CNc1cc(C)ccc1OC | inconclusive: 5.62 µM [inhibitor, full curve] | 
Nc1c(Cl)cc(-c2cn(CCC(=O)O)c(-c3ccncc3)n2)cc1Cl | inconclusive: 0.1 µM [inhibitor, full curve, poor fit] | 
CCc1nc2ccc(C(=O)NCc3cccs3)cn2c1N(CC)Cc1cccc(Br)c1 | active: 11.2 µM | 
Cc1ccc(S(=O)(=O)c2nnn3c2nc(NC2CCN(Cc4ccccc4)CC2)c2ccccc23)cc1C | inconclusive: 10 µM [inhibitor, partial curve] | 
O=C1CN(C(=O)CSc2nc(-c3ccc(Cl)cc3)cs2)c2ccccc2N1 | inconclusive: 22.4 µM [inhibitor, partial curve, poor fit] | 
OC(c1ccccc1)(c1nc(-c2ccccc2)cs1)C(F)(F)F (configuration not stated) | inconclusive: 31.6 µM [inhibitor, single point] | 
Cc1cc(C)cc(NC(=O)c2sc3nc[nH]c(=O)c3c2C)c1 | inconclusive: 2.51 µM [inhibitor, partial curve, poor fit] | 
CCCCn1c(N)c(C(=S)NC(=O)CC(C)C)c(=O)n(C)c1=O | inconclusive: 28.2 µM [inhibitor, single point] | 
Cc1ccc(S(=O)(=O)NC(=O)c2cccc(N(C)C)c2)cc1 |  | inactive: 10.3%
COc1ccccc1NC(=O)c1cnc(SC)nc1 | inconclusive: 35.5 µM [inhibitor, single point] | 
Cc1cc(C)c(Cn2c(=O)n(CCCC(=O)NCc3ccco3)c(=O)c3ccccc32)c(C)c1 |  | inactive: 7.48%
CC(NC(=O)[C@H](C)NC(=O)[C@@H]1CSC2c3ccccc3C(=O)N21)c1ccccc1 (some centres not stated) | inconclusive: 3.16 µM [inhibitor, single point] | 
CN(C)S(=O)(=O)N(CC(=O)Nc1ccc(Br)cc1F)c1ccccc1 |  | inactive: -3.3%
COc1ccc(NCc2n[nH]c(=O)c3ccccc23)cc1 | inconclusive: 0.562 µM [inhibitor, partial curve, poor fit] | 
O=C(COC(=O)C1CCN(S(=O)(=O)c2ccccc2)CC1)NC(=O)c1ccc(OC(F)F)cc1 | inconclusive: 35.5 µM [inhibitor, single point] | 

SMILES | Potency | activity, negative = inhibition
C=CCOc1ccc2c(c1)CCC1C2CCC2(C)C(O)C(O)CC12 (configuration not stated) | inconclusive: 22.4 µM [inhibitor, single point] | 
Nc1nc(-c2ccccn2)nc(N)c1Cc1ccccc1F | inconclusive: 11.2 µM [inhibitor, partial curve, poor fit] | 
N#Cc1nc(Cc2ccccc2)oc1NCc1ccccc1 | inconclusive: 1 µM [inhibitor, partial curve] | 
Oc1ccc(C=NNC(=S)Nc2cccnc2)nc1 | inconclusive: 6.31 µM [inhibitor, single point] | 
CCCC(=O)NC(=S)Nc1ccccc1F | inconclusive: 12.6 µM [inhibitor, partial curve, poor fit] | 
COc1ccc(CN(C)CC2CCCN(CCc3ccccc3C)C2)cc1O (configuration not stated) |  | inactive: -18.4%
CCc1ccc(NC(=O)CSc2nc(-c3ccccc3)no2)cc1 | inconclusive: 3.98 µM [inhibitor, full curve, poor fit] | 
Fc1ccccc1N1CCN(c2nnc(C(F)(F)F)c3nnn(Cc4ccccc4)c23)CC1 |  | inactive: -14.5%
O=C(Nc1ccc(Cl)c(Cl)c1)C1CCCCC1 | inconclusive: 7.94 µM [inhibitor, partial curve] | 
O=C(CCN1C(=O)[C@@H]2Cc3ccccc3CN2C1=O)N[C@H](Cc1ccccc1)C(=O)O |  | inactive: -0.62%
O=C(/C=C/c1ccc(Cl)cc1Cl)Nc1ccncc1 | inconclusive: 35.5 µM [inhibitor, single point] | 
Cc1cc(C)n2nc(C(=O)OCC(=O)Nc3ccc(C)c(S(=O)(=O)N(C)C)c3)nc2n1 | inconclusive: 22.4 µM [inhibitor, single point] | 
COc1ccc(-c2oc3ncn(Cc4ccco4)c(=N)c3c2-c2ccc(OC)cc2)cc1 | inconclusive: 35.5 µM [inhibitor, single point] | 
O=C(c1[nH]c(C(F)(F)F)nc1-c1ccccc1)N1CCN(C(=O)C2CCCO2)CC1 (configuration not stated) |  | inactive: 3.4%
CCCNC(=S)NCCN1CCCCC1 |  | inactive: 37.4%
O=C1CCCC(O)=C1C(C#Cc1ccccc1)C1=C(O)CCCC1=O | inconclusive: 22.4 µM [inhibitor, partial curve, poor fit] | 
CCCCNC(=O)CCCN1C(=O)CCn2nc(-c3cccn3C)cc21 |  | inactive: -2.26%
CC(O)CNc1nc2c(c(=O)n(Cc3ccc(Cl)c(Cl)c3)c(=O)n2C)n1C (configuration not stated) |  | inactive: 3.63%
CCCCCC(=O)N1C[C@@H](n2cc(-c3ccc(F)cc3)nn2)[C@H](O)C[C@@H]1c1ccc(C)cc1 | inconclusive: 25.1 µM [inhibitor, single point] | 
CC(C)CC1Nc2ncnc(N3CCN(c4ccccn4)CC3)c2N(Cc2ccc(Br)cc2)C1=O (configuration not stated) | inconclusive: 7.94 µM [inhibitor, partial curve, poor fit] | 
COc1cc(/C=N/NC(=O)c2cccnc2)ccc1OC(=O)c1cccc(Br)c1 | inconclusive: 5.62 µM [inhibitor, single point] | 
